The other results are listed elsewhere or left out.

T1: UNK ZnF1-3 (human, UniProt Q9C0B0 31-174)
T1 sequence: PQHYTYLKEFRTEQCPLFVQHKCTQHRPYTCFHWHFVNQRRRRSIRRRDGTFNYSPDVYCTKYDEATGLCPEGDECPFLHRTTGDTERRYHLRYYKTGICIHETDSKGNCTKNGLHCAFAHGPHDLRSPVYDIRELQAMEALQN

B1: chr4:11091628:11091629:+_ENSMUSG00000028211_ENSMUST00000029865|mus_mus|FALSE|FALSE (ssRNA)
RNA: GGGAGUUCUACAGUCCGACGAUCUUCUUUCUCACUGAAUUCUGGUUCUUGGCUGGAAGAAGUAGUGACUUCGCCUACAAACAUUUUAUUCAGUCUCUGAAACAUUGUUAAGGCAAGAUUGAGAUUUUGGCUAGAUAUCUUUAUCAACAGAGGAUUGAGCAUCA
B2: chr1:163115580:163115581:-_ENSG00000143248_ENST00000313961|hu_hu|FALSE|FALSE (ssRNA)
RNA: GGGAGUUCUACAGUCCGACGAUCUACAGUCACAUAGUUGCUUCACUUUCAAUAUUCUUAGGAAAUAACCAAAUAAAUGAGCUACAAAUAUGAGAAACUGAGAGUGUGUGAAUGAAAGAGAGCAACAGAAGGAGGAAAUACAAGCAACAGAGGAUUGAGCAUCA
B3: chr2:164332853:164332854:+_ENSMUSG00000017721_ENSMUST00000103101|mus_mus|FALSE|FALSE (ssRNA)
RNA: GGGAGUUCUACAGUCCGACGAUCAUAGCACACGGCCACCACCGUGCACGUAAGGCAGAUCACAUUGUAGGGCAUGCUGAAGUCCGGGGUGGGCAGGUUCACUAGCAAGGGCUCUGUGUAGAGUCGGACAAAGUAGCUGGAGCCCAACAGAGGAUUGAGCAUCA
B4: chr4:11166509:11166510:-_ENSMUSG00000040738_ENSMUST00000108319|mus_mus|motif|central (ssRNA)
RNA: GGGAGUUCUACAGUCCGACGAUCUUGAGAGUUAUUAUCAGAAGAAGGUACAAGAACAUCACACGCUUGACAAUAGCCAGCGGACCGCUUCUCAUCUAUGGUACAAUGAAGAGAUAAUGAACCUAUCUCUGCAAGUAGUUCUUUCAACAGAGGAUUGAGCAUCA
B5: chr14:28285125:28285126:+_ENSMUSG00000040651_ENSMUST00000022450|mus_mus|motif|central (ssRNA)
RNA: GGGAGUUCUACAGUCCGACGAUCCUCAGAAAGGCGAUUCAUCUUCUCUUGUGCUGAAAAGAUAGGUGUGGAAAUUGCACGGACAUAUGAAACAUUCUUCUCCUUCAAAAUCUCUUCUACCUUCCUAGAGAAAAGAUGGAACUCCAACAGAGGAUUGAGCAUCA
B6: chr5:37680062:37680063:+_ENSMUSG00000029121_ENSMUST00000031004|mus_hu|mus_mus_mus_hu_False|1_78 (ssRNA)
RNA: GGGAGUUCUACAGUCCGACGAUCUUUGGGUGUAGCUGGUACCUCGUACACAGGACCAUCGUACAUGCCCCUGGAAACCCCUUGCAAUCCAAAAACCUUAUUCCUGAUUUUGACGCGCUGGUACAGGUGCUCCGGGAAUGGCUUCAACAGAGGAUUGAGCAUCA
B7: chr19:53703180:53703181:+_ENSMUSG00000024974_ENSMUST00000025930|mus_hu|FALSE|FALSE (ssRNA)
RNA: GGGAGUUCUACAGUCCGACGAUCAUUUUGAACAUGCUGGUUUAUUCCUUUUCGACGGAAGUGGUCUAGCACUUUGUUUAUGCUGUCUAUUCCAUUUAAAAUGGCCUUUCCUGUUGCUGCUCUAAGAAGUUGUUGCUUCUUUUCCAACAGAGGAUUGAGCAUCA
B8: chr2:232320318:232320319:-_ENSG00000115053_ENST00000322723|hu_hu|hu_hu_hu_mus_True|18_58 (ssRNA)
RNA: GGGAGUUCUACAGUCCGACGAUCACUAUUAAAGUCUACAAAACCAAACCCUUUGGAAGAACCAGUUUCCCGAUCAGUAACUAUCCUUGCACGAACAGAGCCCUCAAAUGAUUCUUUUAAUGUCUCUUCAGUGGUAUCCUCAGACAACAGAGGAUUGAGCAUCA
B9: 39847440_39850530_3879_CDS_ENSG00000121892_ENST00000303538|human|control|control (ssRNA)
RNA: GGGAGUUCUACAGUCCGACGAUCUCCUGUUAACAGAAGUACUCUUGUCUCUUCUGAAAUAUAACUCUUAUCGUUACAGAAGUCCUUUUCAGGUUGUGUAAAAAAUUUCAUUGGGAGGACUGGGUCCUUUGGUGAAUCUGCAUUCAACAGAGGAUUGAGCAUCA
B10: chr9:95013113:95013114:-_ENSG00000196305_ENST00000443024|hu_hu|hu_hu_hu_mus_False|1_98 (ssRNA)
RNA: GGGAGUUCUACAGUCCGACGAUCCUCAGUCAGAAAGGGUGUGUAGGGGGCCAUCAGUCUGCACAGAGAAAGCAGGACACUGAACAGUGUCUCCAGAGCCAUGACACAGUCUUCCACCCCACUCUCACCCUUUAACCUUCUGCGCAACAGAGGAUUGAGCAUCA
B11: chr1:95368729:95368730:-_ENSG00000117519_ENST00000538964|hu_hu|FALSE|FALSE (ssRNA)
RNA: GGGAGUUCUACAGUCCGACGAUCCAACUGAGGCCAGUUCAGUGAGGACUCGUUGACCUUCUUCACUGAGCCUGGCUGUAGCUUGUUUAUAAGUUCGCAGAGGAUGAUGCCAUCCUUUAAGCCCAGCUGGAAGUUGGGGCCAAUCAACAGAGGAUUGAGCAUCA
B12: chr10:33190432:33190433:-_ENSG00000150093_ENST00000302278|hu_mus|hu_hu_hu_mus_True|1_58 (ssRNA)
RNA: GGGAGUUCUACAGUCCGACGAUCUACAUUUUCCAAACCUGCAUGUGAAUAAAACCCUGGCCACAGAGCCCCAAAACUACCUAACUGUGACUAAGAUGCUGCUGCUGUGAGCUUGGUGUUGCAAAAUCCGCCUGAGUCAGUACUCAACAGAGGAUUGAGCAUCA
B13: chr1:163115689:163115690:-_ENSG00000143248_ENST00000313961|hu_hu|motif|central (ssRNA)
RNA: GGGAGUUCUACAGUCCGACGAUCCAAUGUAAUCUUCUACUUAACAUUUCAGAAUUUUAUUAAUCCUUUAAAAAUCACCCGGUUUCUUUUGAGUUAAUAUCCUCAUCUCGAUUACCCUCAUACAUGGCUUAGUUUGAUUCUGUUCAACAGAGGAUUGAGCAUCA
B14: chr4:47484081:47484082:-_ENSMUSG00000039740_ENSMUST00000044148|mus_mus|motif|central (ssRNA)
RNA: GGGAGUUCUACAGUCCGACGAUCCCAUUACGCUCUGAAGUCAAAUCAAUUGACUGUGACAAUGGUAAGACCUACACGGCGGAAGCCAAUUAAGGCACUGGAUGAUCAAACCUUUAUAUAUAAAGGAACAAUAAUCCAGGAAAACAACAGAGGAUUGAGCAUCA
B15: chr1:58468927:58468928:-_ENSMUSG00000026034_ENSMUST00000148330|mus_mus|mus_mus_mus_hu_False|28_108 (ssRNA)
RNA: GGGAGUUCUACAGUCCGACGAUCAAUCUAUAAUUACGAUGUUCAUUACCUUAGCUAUGUACUUAAUGAACCAAAUUACCCAAACAAAAUAAACAUGGCAAUAUAAAAAGCUAUACAAUUUACAAAGCUGUACAAAAUAACUUACAACAGAGGAUUGAGCAUCA
B16: chr9:100410314:100410315:+_ENSG00000136937_ENST00000375147|hu_hu|FALSE|FALSE (ssRNA)
RNA: GGGAGUUCUACAGUCCGACGAUCGUGCCGUUCCUGCCAGCGAUCCUUUUUCAAUUUCUGAAUCUGGGCCCACAGGCAAUCUAAAUACUCUUCUUGUGGAUGUGGUUUAUCAGCAGUCCAUACCUGUAACAUGGGUACAUGAGUCAACAGAGGAUUGAGCAUCA
B17: chr14:103803487:103803488:+_ENSG00000100664_ENST00000558506|hu_mus|hu_hu_hu_mus_True|78_88 (ssRNA)
RNA: GGGAGUUCUACAGUCCGACGAUCGAGUUUAUGAUGUGUGUCAAGCAUGCCUCGAUAGCCACAGGCUUUACAAGAAUUACCUAUUGUUUGCUUCUUUGGAUUGACAUGCAGAUCUGUUUCAGGAUUCUCACACUCAGGACAGAGCAACAGAGGAUUGAGCAUCA
B18: chr16:5026692:5026693:-_ENSMUSG00000022536_ENSMUST00000115844|mus_mus|motif|central (ssRNA)
RNA: GGGAGUUCUACAGUCCGACGAUCACCCAUUUUUAGCAAGUUGGAGACGAUGCCACUUCCCAUUAAGCCAAGGCCCAAAAAUCCGGUCUUUUUGUCUGUGGGUGUAAUGCUGCCAUUCACAGCUGUGCUGUCUGCUGCCUGGAUCAACAGAGGAUUGAGCAUCA
B19: chr8:95500983:95500984:-_ENSG00000164944_ENST00000437199|hu_hu|hu_hu_hu_mus_True|28_48 (ssRNA)
RNA: GGGAGUUCUACAGUCCGACGAUCAGAACACAUCUAUCGAGUAAAGGACCGUACAUGACGGCCUCUACCACUGCCUCCACUAACAAAACUUUCCUCUGAGCCUCCACCUGCCGCUAUUGUACUAGCCCAGGACGGUCCCAGGCCCAACAGAGGAUUGAGCAUCA
B20: chr3:37053522:37053523:+_ENSG00000076242_ENST00000455445|hu_mus|FALSE|FALSE (ssRNA)
RNA: GGGAGUUCUACAGUCCGACGAUCAAAGAUGGAGCGAAUGUUGUCCACGGUUGUGGCAUUGGGCAGUGUUCUGACAUCAGAUACUGUCUCACCUUGUUUUUUAACUGAGAAACUAAUGCCUGAAUUGUGUAUUGAAUACCUGCCCAACAGAGGAUUGAGCAUCA
B21: chr7:90019433:90019434:+_ENSMUSG00000057706_ENSMUST00000082237|mus_hu|mus_mus_mus_hu_True|88_98 (ssRNA)
RNA: GGGAGUUCUACAGUCCGACGAUCAAAUAAUACAGUGUCUUUGCCAUAAGGCCAUACCUAAAAUAAAAAGAUUUAACCCAGCUACAAAAAAGUUCACUGAACUUAAAUUAAAAUACUUGUAAACAUCUUUGCAAUAUGAAAUAUCAACAGAGGAUUGAGCAUCA
B22: chr1:154525626:154525627:-_ENSG00000160714_ENST00000292211|hu_mus|motif|central (ssRNA)
RNA: GGGAGUUCUACAGUCCGACGAUCAUCAUCUUCAGACUUCUUGCCCUCGGCUGGCUCUUCCUCUUUCAUUUCAUAGUGAUCGGGGUCUUCUGUAUCCUCAGGCAUCUCUUCAUCUUCAUCUUCUGAAGACACUUCUUCCUGCGUCAACAGAGGAUUGAGCAUCA

The target in the assay is T1, UNK ZnF1-3. In words: nsRBNS (natural sequence RNA bind-n-seq); RBNS binding buffer (assumed for nsRBNS): 25 mM Tris pH 7.5, 150 mM KCl, 3 mM MgCl2, 0.01% Triton X-100, 500 ug/ml BSA, 20 U/ml SUPERase-In, 4 C; UNK is unkempt and MSI1 is Musashi-1; names of the RNAs are library labels; protein concentration not given here; high values mean tight binding.
Turning to B1, the binding signal was 0.68 enrichment R.

B2: the binding signal turned out to be 1.82 enrichment R.

For the molecule B3, the binding signal was determined as 0.708 enrichment R.

B4: the binding signal was determined as 1.43 enrichment R.

As for B5, the binding signal was determined as 1.03 enrichment R.

Molecule B6 showed a binding signal of 0.577 enrichment R.

As to B7, the binding signal was 0.227 enrichment R.

In turn, B8 returned a binding signal of 1.34 enrichment R.

B9 showed a binding signal of 0.633 enrichment R.

The molecule B10 gave a binding signal of 0.778 enrichment R.

Regarding B11, the binding signal stood at 0.784 enrichment R.

Regarding B12, the binding signal worked out at 1.09 enrichment R.

B13: the binding signal was 0.735 enrichment R.

B14 had a binding signal of 0.692 enrichment R.

Turning to B15, the binding signal came to 0.572 enrichment R.

Regarding B16, the binding signal was 0.812 enrichment R.

As to B17, the binding signal is 1.22 enrichment R.

In the case of B18, the binding signal was 0.923 enrichment R.

On to B19, for which the binding signal was determined as 1.01 enrichment R.

The molecule B20 had a binding signal of 0.544 enrichment R.

The molecule B21 showed a binding signal of 1.41 enrichment R.

In the case of B22, the binding signal worked out at 0.42 enrichment R.

(Values after publication PMC12136788.)
